In the supplement of paper PMC7125110:
± gives the standard error. Variants at the background level are over-represented here.

B1: glmS ribozyme (parent)
chain: AUAAAAGCGCCAGAACUACAGAAAUGUAGUUGACGAGGAGGAGGUUUAUCGAAUUUUCGGCGGAUGCCUCCAAA

Variants of: B1
Experiment: self-cleavage kobs at 2500 uM GlcN6P; higher = faster cleavage; RNA array
Conditions: with glucosamine-6-phosphate
Outline: (§1)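 Barcoded ribozyme variants on sequenced MiSeq chips were transcribed in situ by E. coli RNA polymerase and followed at 37 °C through a hybridised Cy3 probe. Glucosamine-6-phosphate at 40 μM to 10 mM in HEPES/KCl/Mg(OAc)2 buffer was flowed in, and tiles were imaged over ~14 h. Signals were normalised to baseline and to non-cleaving reference variants, and per-tile medians were fit to one- or two-exponential decays to give kobs. Weighted Michaelis–Menten fits across concentrations gave kcat and KM.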

Row | Variant | self-cleavage kobs at 2500 uM GlcN6P [s⁻¹]
1 | G38U G43A U47C C67U | < 1e-05
2 | G38U U47G G59U U69A | < 1e-05
3 | A39C A42C G66A | 0.00014 ± 4.5e-05
4 | A39C C50A C61U C71U | < 1e-05
5 | A39C C71A | 4.16e-05 ± 1.1e-05
6 | A39C G51U C67A U69G | < 1e-05
7 | A39C U47C U55A | 0.000971 ± 0.00023
8 | A39C U47G U49A C70A | < 1e-05
9 | A39G A48C C58G | < 1e-05
10 | A39G G43A A52U U69C | < 1e-05
11 | A39G G43C G51U A64G | < 1e-05
12 | A39G G44U A53C | 0.000157 ± 4.5e-05
13 | A39G U49A G62C | < 1e-05
14 | A39G U54G G60C C61A | < 1e-05
15 | A39U A48C | 0.000181 ± 1.8e-05
16 | A39U C50G A64G | < 1e-05
17 | A39U G66A C70G | 0.000771 ± 0.00023
18 | G40A G41C C68A | < 1e-05
19 | G40A U49C | < 1e-05
20 | G40A U54G U69A | < 1e-05
21 | G40C G41U G43C U46C C70G | < 1e-05

Row | Variant | self-cleavage kobs at 2500 uM GlcN6P [s⁻¹]
22 | G40C G43U C50U | < 1e-05
23 | G40U A48C C50U | < 1e-05
24 | G40U A52U G60C | < 1e-05
25 | G41A A42G A64C C68A | < 1e-05
26 | G41A A42U U56C | < 1e-05
27 | G41A C50U C61G | < 1e-05
28 | G41A C50U C71U | < 1e-05
29 | G41A G43U G60C C61U | < 1e-05
30 | G41A G44A U56A G62A U69A | < 1e-05
31 | G41A G44U A53G C58A G59U | < 1e-05
32 | G41A U49G | 3.9e-05 ± 1e-05
33 | G41C U45G A48C U55A | < 1e-05
34 | G41C U46A | 5.8e-05 ± 1.3e-05
35 | G41U C58A C70U C71A | < 1e-05
36 | G41U G44U C67U U69G | < 1e-05
37 | G41U G51C G63U | < 1e-05
38 | A42G G43U A48C C58A | < 1e-05
39 | A42G U47A G66C C70U | < 1e-05
40 | A42G U49G A53C G59C C67U | < 1e-05
41 | A42U C58U U65G | < 1e-05
42 | G43A C50U G62U | < 1e-05

Row | Variant | self-cleavage kobs at 2500 uM GlcN6P [s⁻¹]
43 | G43A G44U C50A G66C | < 1e-05
44 | G43A G66U C67U C71U | < 1e-05
45 | G43C A52U A53G U57A | < 1e-05
46 | G43U C50A A64U | < 1e-05
47 | G43U U45G U56A G59U G60U U65A | < 1e-05
48 | G44C C50U | < 1e-05
49 | G44C G51A U55C U56C | < 1e-05
50 | G44C U49A G51C | < 1e-05
51 | G44U G63C C67U | < 1e-05
52 | G44U U49C A64G | < 1e-05
53 | G44U U49C C50G G51C | < 1e-05
54 | U45A U46A A52U | 8.04e-05 ± 3.5e-05
55 | U45A U46G G62C | < 1e-05
56 | U46C C50A G63U | < 1e-05
57 | U47C C58U C61U | < 1e-05
58 | A48C C50G C70U | < 1e-05
59 | A48C U57A G62C | < 1e-05
60 | A48G C50G A52U | < 1e-05
61 | A48U U57C U65G | < 1e-05
62 | U49A A52U A64G | < 1e-05
63 | U49G A53C C58G | < 1e-05

Row | Variant | self-cleavage kobs at 2500 uM GlcN6P [s⁻¹]
64 | C50A A52U A53G U54C U65C | < 1e-05
65 | C50A G60U G63A | < 1e-05
66 | C50A U65G C67A | 8.64e-05 ± 2.2e-05
67 | G51A G62A U65A | < 1e-05
68 | G51A G63C | < 1e-05
69 | G51C G62U C71G | < 1e-05
70 | G51U A64G C70U | < 1e-05
71 | G51U G60U C71G | < 1e-05
72 | A52C G59C A64U | < 1e-05
73 | A52C G59C G63U A64G C67A | < 1e-05
74 | A52U U55C A64G | 4.16e-05 ± 1.5e-05
75 | A53G G59A | 3.91e-05 ± 1.5e-05
76 | A53G G59U | 2.98e-05 ± 1.2e-05
77 | U54G C58G | 9.35e-05 ± 1.7e-05
78 | U55C C58G | 3.85e-05 ± 1.1e-05
79 | U56G G60C C70U | < 1e-05
80 | C58U U65A C68G | 0.000102 ± 3.1e-05
81 | G60U G63A U69G C70A | < 1e-05

Variants of: B1
Experiment: self-cleavage kobs at 10000 uM GlcN6P; higher = faster cleavage; RNA array
Conditions: with glucosamine-6-phosphate
Outline: as §1

Row | Variant | self-cleavage kobs at 10000 uM GlcN6P [s⁻¹]
82 | A39C C71A | 5.25e-05 ± 7.2e-06
83 | A39G A48C C58G | < 1e-05
84 | A39G U54G G60C C61A | < 1e-05
85 | A39U A48C | 0.000196 ± 1.6e-05
86 | G40A U49C | < 1e-05
87 | G41A U49G | 3.34e-05 ± 8.6e-06
88 | G41C U46A | 9.03e-05 ± 1.3e-05
89 | A42G G43U A48C C58A | < 1e-05
90 | G43C A52U A53G U57A | < 1e-05
91 | G44C C50U | < 1e-05
92 | U49A A52U A64G | < 1e-05
93 | G51A G63C | < 1e-05
94 | A53G G59A | 7e-05 ± 1.9e-05
95 | A53G G59U | 2.45e-05 ± 7.8e-06
96 | U54G C58G | 0.000164 ± 2e-05
97 | A1U U2G A3G C8G C34G | < 1e-05
98 | U2C C11U G59U | 0.000103 ± 2.1e-05
99 | A6C A53C U57C C71G | < 1e-05
100 | A6C C16U G29C C58A | < 1e-05
101 | A6C G35C G38U | < 1e-05
102 | A6C G37A G38A U47C A53C G63A C71G | < 1e-05
103 | A6G C10U A36U A52U C70U | < 1e-05
104 | A6G C16A A33C U46G A53G U54A | < 1e-05

Row | Variant | self-cleavage kobs at 10000 uM GlcN6P [s⁻¹]
105 | A6G C16U G41U G43A U47G | < 1e-05
106 | A6G C34G A36C | < 1e-05
107 | A6G G7C C8G G9C C11A A12G G13C C34U | < 1e-05
108 | A6G G7U A15U C67G | < 1e-05
109 | A6G U31A G35C U47C U49A U54A | < 1e-05
110 | A6U C8G U30C U55C | < 1e-05
111 | A6U C50G A53C C71A | 4.1e-05 ± 2e-05
112 | A6U G43U C58A C68U | < 1e-05
113 | A6U U56C C70U | < 1e-05
114 | G7A A33U G51A | < 1e-05
115 | G7A A39C G59C | < 1e-05
116 | G7A G29C G32U U57C C58A | < 1e-05
117 | G7A U30A A39C A48C | < 1e-05
118 | G7C A48C A64G | < 1e-05
119 | G7C G41A C61U | < 1e-05
120 | G7C G60U C61G | < 1e-05
121 | G7C U31C C34U G44C C70A | < 1e-05
122 | G7C U55G U56C U69A | < 1e-05
123 | G7U A33C G43A | < 1e-05
124 | G7U A48G C50G C61G | 0.000895 ± 0.00024
125 | G7U C8G C16A | < 1e-05
126 | G7U C10U G37A C67A | < 1e-05
127 | G7U C58U C71A | < 1e-05

Row | Variant | self-cleavage kobs at 10000 uM GlcN6P [s⁻¹]
128 | G7U G9U A36G | < 1e-05
129 | G7U G9U A64G | < 1e-05
130 | G7U G13A A14U | < 1e-05
131 | G7U G51C U54G | < 1e-05
132 | C8A C10A G35C | < 1e-05
133 | C8A G9C U30C C71A | < 1e-05
134 | C8A G21U | < 1e-05
135 | C8A G38A G40C U57C | < 1e-05
136 | C8A G41U U46G G63A | < 1e-05
137 | C8A G63U G66U | < 1e-05
138 | C8A U30C U47G C58U | < 1e-05
139 | C8G C10U U54G | < 1e-05
140 | C8G C11A G60C | < 1e-05
141 | C8G G9C C70U | < 1e-05
142 | C8G G29C G35A | < 1e-05
143 | C8G G32C G60C | < 1e-05
144 | C8G G40U U57C G59A | < 1e-05
145 | C8G U45G U55C C71A | < 1e-05
146 | C8U A39C C61A | < 1e-05
147 | C8U C16G A64C | < 1e-05
148 | C8U G9A G35C A36C G44U C68U | < 1e-05
149 | C8U G35A G38A G41U A64C | < 1e-05
150 | C8U U31C A39U G66C | < 1e-05

Row | Variant | self-cleavage kobs at 10000 uM GlcN6P [s⁻¹]
151 | G9A G37C A42G C61A | < 1e-05
152 | G9A U56C C58G | < 1e-05
153 | G9C A39G C68U | < 1e-05
154 | G9C C16A A48G | < 1e-05
155 | G9C G32A A42G | < 1e-05
156 | G9U A14C A36C U46A | < 1e-05
157 | G9U A15U A52U | < 1e-05
158 | G9U A36G G38U G44U A52U G63U | < 1e-05
159 | G9U G37U U54C U69G | < 1e-05
160 | G9U G40A U54A C61U | < 1e-05
161 | C10A A33U U45C C58A | < 1e-05
162 | C10A G13C G35C A39U | < 1e-05
163 | C10A G37C | < 1e-05
164 | C10A U30G A33U A36U | < 1e-05
165 | C10A U45A U47G U57A G66C C70U | < 1e-05
166 | C10G A14C A36U G66A | < 1e-05
167 | C10G A15U A48G U55C | < 1e-05
168 | C10G A39U A48C | < 1e-05
169 | C10G G38A C70A | < 1e-05
170 | C10G U57G C67A | < 1e-05
